Variants at the background level are over-represented here.
B1: TPR 5TU (parent)
chain: GGAUCUUCUCGAUCUAACAAAAAAGACAAAUCUGCCACAAAGCUUGAGAGCAUCUUCGGAUGCAGAGGCGGCAGCCUUCGGUGGCGCGAUAGCGCCAACGUUCUCAACUAUGACACGCAAAACGCGUGCUCCGUUGAAUGGAGUUUAUCAUG

Variants of: B1
Test: polymerase ribozyme fitness, log enrichment relative to wild type (log ratio); higher = more active; in vitro selection for triplet polymerase activity
Method in brief: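 Each subunit of a heterodimeric triplet polymerase ribozyme was mutagenized into a library by PCR, transcribed, and subjected to one round of in vitro selection, run in triplicate. Libraries were annealed with a biotinylated primer, the partner subunit and triplets, incubated frozen at −7 °C, and extended constructs were gel-excised, captured on streptavidin beads and recovered by RT-PCR. Input and output libraries were sequenced on Illumina, keeping genotypes with ≥10 input reads and ≥1 read per output. Fitness is log base 2 of genotype enrichment divided by wild-type enrichment, from inverse-variance-weighted replicate averages.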

Polymerase ribozyme fitness (log ratio), ≤ -4.2:
GGCUCUUCUCGAUCUAACAAAAAAGACAAAUCUGCCACAAAACUUGAGAGGAUCUUCGGAUGCAGAGGCGGCAGCCUUCGGUGGUGCGAUAGCGCCAACGUUCUCAACUAUGACACGCAAAACGCGUGCUCCGUUGAAUGGAGUUUAUCAUG [A3C G42A C51G C85U]
GGCUCUUCGCGAUCUAACAAAAAUGUCAAAUCUGCCACAAAGCUUGAGAGCCUCUUCGGAUGCAGAGGUGGCAGCCUUCGGUGGCGCAAUAGCGCCAACGUUCUCAACUAUGCCACGCAAAACGCGUGCUCCGUUGAAUGGAGUUUAUCAUG [A3C U9G A24U A26U A52C C69U G88A A113C]
GGCUCUUCUCGAUCUAACAAAAAAGACAAAUCUGCCACAAAGCUUGAGAACAUCUUCGGAUGCAGAGGCGGCAGCCCUCGGUGGCGCAAUAGCGCCAACGUUCUCAACUAUGACACGCAAAACGCGUGCUCCGUUGAAUUGAGUUUAUCAUG [A3C G50A U77C G88A G140U]
GGGUCUUCUCGAUCUCACAAAAAAGACAAAUCUGCCACAAAGCUUGAGAGAAUCUUCGGAUGCAGAGGCGGCAGCCUUCGGUGGCGCUAUAGCGACAACGUUCUCAACUAUGACACCCAAAACGCGUGCUCCGUUGAAUGGAGUUUAUCAUG [A3G A16C C51A G88U C95A G117C]
GGCCGUUCUCGAUCUAACAAAAAAGACAAAUCUGCCACAAAGCUUGAGAGCAUCUUCGGAUGCAGAGGCGGCAUUCUGCGGUGGUGCGAUAGCGCCAACGUUCUCAACUAUGACACGCAAAACGCGUGCUCCGUUGAAUGGAGUUUAUCGUG [A3C U4C C5G G74U C75U U78G C85U A150G]
GGCUCUUCUCGAUCUACCAAAAAAGACAAAUCUGCCACAAAGCUUGAGAGCAUCUACGGAUGCAGAGGCGGCAGCCUUCGAUGGUGCGAUAGCGCCAACGUUCUCAACUAUGACACGCAAAACGCGUGCUCCGUUGAACGGAGUUUAUCAUG [A3C A17C U56A G81A C85U U139C]
GGCUCUUCUCGAUCUAACAAAAAAGACAAAUCUGCCACAAAGCUUGAGAGCGUCUUCGUAUGCAGAGCCGGCAGCCUUCGGUGGGGCGAUAGCGCCAACGUUCUCAACUAUGACACGCAGAACGCGUACUCUGUUGAAUGGAGUGUAUCAUG [A3C A52G G59U G68C C85G A120G G128A C132U U145G]
GGCUCUUCUCGAUCUAACAAACAAGACAAAUCUGCCACAAAGCUUGAGAGCAUCUUCGGAUGCAGAGGCGGCAGCCUUCGGUGGCGCGAUAGCGCAUACGUUCUCCACUAUGACACGCAAACCGCGUGCUCCGUUGAAUGGAGCUUAUCAUG [A3C A22C C96A A97U A106C A122C U144C]
GGCGCUUUUCGAUCUAACAAAAAAGACAAAUCUGCCACAAAGCUUGAGAGCAUCUUCGGGUGCAGAGGCGGCAGCCUUCGGUGGCGCGAUAGCGCCAACGUUCUCUACUAUGACACGCAAAACGCGUGCUCCGUUGCAUGGAGUUUAUCAUG [A3C U4G C8U A60G A106U A137C]
GGCUCUUGUCGAUCUAACAAAAAAGACAAAUCUGCCACAAAGCUUGAGAGCAUCUUCGGAUGCAGAGGCGGCAGCCUUCGGUGGCGCGAUAGGGCCUACGUUCUUAACUAUGACAUGCAAAACGCGUGCUCCGUUGAAUGGAGUUUAUCAUG [A3C C8G C93G A97U C105U C116U]
GGCUCUUCUCGAUCUAACAAAAAAGACUAAUUUGCAACAAAGCUUGAGAGCAUUUUCGGAUGCAGAGGCGGCAGCCUUCGGUGGCGCGAUAGCGCCAACGUUCUCAACUAUGACACGCAAAACGCGUGCUCCGUUGCAUGGAGUUUAUCAUG [A3C A28U C32U C36A C54U A137C]
GGCUCUUCUAGAUCUAACAAAAAAGACAAAUCUGCCACAAAACUUGAGAGCAUCUUCGGAUGCAGAGGCGGCAGCCUUAGGUGGGGCGAUAGCGCCAACGUUCUCAACUAUGACACGCAAAACGCGUGCUCCGUUGAAUGGAGUUUAUCAUG [A3C C10A G42A C79A C85G]
GGCUCUUCUCGAUCUAAGAAAAAAGACAAAUCUGCCACAAAGCUUGCGAGCAUCUUCGGAUGCAGAGGCGGCGGCCUUCGGUCGCGCGAUAGCGCCAACGUUCUCAACUAUGACACGCAAAACGCGUGCUCCAUUGAAUGGAGUUUAUCAUG [A3C C18G A47C A73G G83C G133A]
GGCUCUUCUCGAUCUAACAAAAAAGACAAAUCUGCCACAAAGCUUGAUAGCAUCUUCGGAUGCAGAGGCGGCAGCCUUCGGUGGCGCGACAACGCCAACGUUCUCAACUAUGACACGCAAAACGCGUGCUCCGUUGAAUGGAGUUUAUCAUA [A3C G48U U90C G92A G152A]
GGCUCUUCUCGAUCUAACAAAAAAGACAAAUCUGCCACAGAGCUUGAGAGCGUCAUCGAAUGCAGAGGCGGCAGCCUUCGGUGACGCGAUAGCGCCAACGUUCUCAACUAUGACACGCAAAACGCAUGCUCUGUUGCAUGGAGUUUAUCGCG [A3C A40G A52G U55A G59A G84A G126A C132U A137C A150G U151C]
GGCUCCUCUCGAUCUAACAAAAAAGACAAAUCUGCCACGAAGCUUGAGAGCAUCUUCGGAUGCAGAGGCGGCAGCCUGCGGUGGCUCGAUAGCGCCAACGUUCUCAACUAUGACACGCAAAAGGCGUGCUCCGUUGAACGGAGUUUAUCAUG [A3C U6C A39G U78G G86U C123G U139C]
GGCUCGUCUCGAUCUAACAAAAGAGCCAAAUCUGCCACAUAGGUUGAGAGCAUCUUCGGAUGCAGAGGCGGCAGCCUUCGGUGGCGCGAUAGCGCGAACGUUCUCAACUAUGACACACAAAACGCGUGCUCCGUUGAAGGGAGUAUAUGAUG [A3C U6G A23G A26C A40U C43G C96G G117A U139G U145A C149G]
GGCUGUUCUCGAUCUAACAAAAAAGACAAAUCUGCCACAAAGCUGGAGACCAUCUUCGGAUGCAGAGGCGGCAGCCUUCGGUGGCGCGAUAGCGCCAACGUUCUCAAAUAUGACACGCAUAACGCGUGCUCCGUUGAAUGGAGUUUAUCAUG [A3C C5G U45G G50C C108A A120U]
GGCUCUUCUCGAUCUAACAAAGAAAACAAAUCUGCCACUAAGCUUGAGAGCAUCUACGAAAGCAGAGGCGGCAGCCUUCGGUGGCGCGAUAGCACCAACGUUCUCAACUAUGACACGCAAAACGCGUGCUCCGUUGAAUGGAGUUUAUCAUG [A3C A22G G25A A39U U56A G59A U61A G94A]
